Measured values reported in PubChem BioAssay AID1645886 (National Center for Advancing Translational Sciences (NCATS), 2021).
Where “and” joins values, the source holds several entries; their conditions need not be identical. Identical values can stand only once. The whole screen tested about 16,000 compounds, of which about 260 (1.6%) were called active. Inconclusive results, whose numbers are uncertain, are shown with a selection of clear calls. The call rests on the fitted dose curve; in most records, active means well fitted inhibition curve with a large enough effect; inconclusive means small, poorly fitted or top-dose-only effect; inactive means no such curve, though single readings can be large or run the other way. A potency beside an inconclusive call is a rough fit, not a confirmed value.

Target: Rap guanine nucleotide exchange factor 4 (Homo sapiens) (UniProt Q8WZA2)
Chain of UniProt Q8WZA2 (Q8WZA2 whole entry, looked up): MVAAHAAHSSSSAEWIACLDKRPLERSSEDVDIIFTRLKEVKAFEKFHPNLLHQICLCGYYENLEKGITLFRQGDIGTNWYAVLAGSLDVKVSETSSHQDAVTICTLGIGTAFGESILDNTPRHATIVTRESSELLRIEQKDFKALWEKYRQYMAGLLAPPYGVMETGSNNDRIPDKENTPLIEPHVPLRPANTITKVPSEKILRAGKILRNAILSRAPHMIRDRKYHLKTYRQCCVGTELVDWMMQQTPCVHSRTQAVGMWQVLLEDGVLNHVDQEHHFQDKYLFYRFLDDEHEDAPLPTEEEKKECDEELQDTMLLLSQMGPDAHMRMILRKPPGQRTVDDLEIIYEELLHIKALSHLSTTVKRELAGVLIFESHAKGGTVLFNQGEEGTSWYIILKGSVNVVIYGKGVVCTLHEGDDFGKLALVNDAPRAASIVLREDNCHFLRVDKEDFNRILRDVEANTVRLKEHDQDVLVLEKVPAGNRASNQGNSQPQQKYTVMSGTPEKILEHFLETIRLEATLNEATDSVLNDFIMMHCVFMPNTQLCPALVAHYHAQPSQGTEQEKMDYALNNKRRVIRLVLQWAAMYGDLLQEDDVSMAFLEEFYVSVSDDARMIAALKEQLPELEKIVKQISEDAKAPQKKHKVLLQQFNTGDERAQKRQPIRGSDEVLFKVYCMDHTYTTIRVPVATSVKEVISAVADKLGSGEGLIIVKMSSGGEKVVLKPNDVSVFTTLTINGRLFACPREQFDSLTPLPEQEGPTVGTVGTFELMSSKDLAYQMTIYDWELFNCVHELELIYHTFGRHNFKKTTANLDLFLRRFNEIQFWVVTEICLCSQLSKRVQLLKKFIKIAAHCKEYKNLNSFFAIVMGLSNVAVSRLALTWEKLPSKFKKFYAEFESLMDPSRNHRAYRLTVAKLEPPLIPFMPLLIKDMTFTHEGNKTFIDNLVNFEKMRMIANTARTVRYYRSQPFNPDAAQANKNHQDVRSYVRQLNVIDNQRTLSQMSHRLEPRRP
Assay: Validation qHTS for antagonist of cAMP-regulated guanine nucleotide exchange factor 4 (EPAC2); further: nearly all actives have a fitted effect of over 40% in size
Conditions: EPAC2 Rap1B BODIPY-GDP exchange, fluorescence; activity, negative = inhibition: at 112 µM (top of the series)
How it was run: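 Normalized against a 6.5 mM cAMP agonist control, compounds were tested on 100 nM EPAC2 exchanging Rap1B-bound BODIPY-GDP (250 nM) for 50 uM GDP. Fluorescence drop (ex 480, em 540 nm) was tracked at room temperature over 30 min at 5-min intervals.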
Potency means the concentration at half of the fitted maximal effect; tags describe the fitted curve by direction and shape.

| SMILES | Potency | activity, negative = inhibition |
| --- | --- | --- |
| COc1cc2c(C)c3c4c(cc(OC)c(OC)c4c2cc1OC)CCN3C | inconclusive: 44.7 µM [inhibitor, partial curve] |  |
| CCCn1c(=O)c2[nH]c(C3CCCC3)nc2n(CCC)c1=O | inconclusive: 31.6 µM [inhibitor, single point] |  |
| COC(=O)/C=C/C(C)=C/C=C/C(C)=C/C=C/C=C(C)/C=C/C=C(C)/C=C/C(=O)O |  | inactive: 7.22% |
| O=C(CCN1Cc2ccccc2OC(c2ccccc2F)C1)N1CCC(N2CCCC(O)C2)CC1 (centres undefined) | inconclusive: 39.8 µM [inhibitor, single point] |  |
| COC(=O)C1[C@H]2SC(C)(C)C(C(=O)OC)N2C(=O)N1Cc1ccccc1 (some centres undefined) | inconclusive: 0.708 µM [inhibitor, full curve, poor fit] |  |
| O=C(Nc1ccccc1)N1CC2(CCN(S(=O)(=O)c3ccccc3)CC2)C1 | inconclusive: 0.794 µM [inhibitor, partial curve, poor fit] |  |
| Cc1cc2nccc(C)c2cc1C | inconclusive: 56.2 µM [inhibitor, partial curve, poor fit] |  |
| CC(=O)O[C@H]1C(=O)[C@@]2(C)[C@H]([C@H](OC(=O)c3ccccc3)[C@]3(O)C[C@H](OC(=O)[C@H](O)[C@@H](NC(=O)c4ccccc4)c4ccccc4)C(C)=C1C3(C)C)[C@]1(OC(C)=O)CO[C@@H]1C[C@@H]2O | inconclusive: 70.8 µM [inhibitor, partial curve, poor fit] and inconclusive: 35.5 µM [inhibitor, partial curve, poor fit] |  |
| CCCCCCCCCCCC[n+]1ccc(C)c2ccccc21 | inconclusive: 50.1 µM [inhibitor, partial curve, poor fit] |  |
| COc1ccc2cc(CN(C(=O)c3cc(C)nn3C)C3CC3)c(-c3ccc(Cl)cc3)nc2c1 | inconclusive: 5.01 µM [inhibitor, full curve] |  |
| Cc1cc(O)cc(C)c1Cl | inconclusive: 15.8 µM [inhibitor, partial curve, poor fit] |  |
| COc1cccc(-c2cc(NCc3ccccc3OC)ncn2)c1 | inconclusive: 25.1 µM [inhibitor, partial curve, poor fit] |  |
| Oc1cccc(O)c1 | inconclusive: 0.708 µM [inhibitor, full curve, poor fit] |  |
| CCC(=O)OCC(=O)[C@@]1(OC(=O)CC)[C@H](C)C[C@H]2[C@@H]3CCC4=CC(=O)C=C[C@]4(C)[C@@]3(F)[C@@H](O)C[C@@]21C | inconclusive: 35.5 µM [inhibitor, full curve] |  |
